# “And” between values parts separate entries of the source, which are not always exact repeats. Identical values can stand only once. In all, about 200,000 compounds went through this assay and about 4,500 (2.2%) were called active. The inconclusive results got no clear call from the source; some entries with a clear call stand among them for comparison. Calls come from the whole dose curve; as a rule, active = well fitted inhibition curve with a large enough effect; inconclusive = small, poorly fitted or top-dose-only effect, or effect the other way; inactive = flat fitted curve, though single readings scatter. Where the call is inconclusive, the potency comes from a doubtful curve fit.
# Biological target: Cruzipain (Trypanosoma cruzi) (UniProt P25779)
# Assay: qHTS Assay for Promiscuous and Specific Inhibitors of Cruzain (without detergent); note: nearly all actives have a fitted effect of over 40% in size;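 for max response, negative = inhibition: plate controls were enzyme without inhibitor for no effect and buffer without enzyme for full effect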
# Conditions: purified cruzain, Z-FR-AMC fluorescence, no detergent
# In short: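 Purified cruzain at 1.5 nM, pre-incubated 15 min with compound at room temperature in 100 mM sodium acetate pH 5.5, 5 mM DTT, 0.00005% Triton X-100. Reaction started with 2 uM Z-FR-AMC; AMC fluorescence increase over 60 s gives rate.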
# Potency is the fitted concentration of half-maximal effect; tags give direction and shape of the fitted curve.
# UniProt P25779, sequence (P25779 whole entry, looked up): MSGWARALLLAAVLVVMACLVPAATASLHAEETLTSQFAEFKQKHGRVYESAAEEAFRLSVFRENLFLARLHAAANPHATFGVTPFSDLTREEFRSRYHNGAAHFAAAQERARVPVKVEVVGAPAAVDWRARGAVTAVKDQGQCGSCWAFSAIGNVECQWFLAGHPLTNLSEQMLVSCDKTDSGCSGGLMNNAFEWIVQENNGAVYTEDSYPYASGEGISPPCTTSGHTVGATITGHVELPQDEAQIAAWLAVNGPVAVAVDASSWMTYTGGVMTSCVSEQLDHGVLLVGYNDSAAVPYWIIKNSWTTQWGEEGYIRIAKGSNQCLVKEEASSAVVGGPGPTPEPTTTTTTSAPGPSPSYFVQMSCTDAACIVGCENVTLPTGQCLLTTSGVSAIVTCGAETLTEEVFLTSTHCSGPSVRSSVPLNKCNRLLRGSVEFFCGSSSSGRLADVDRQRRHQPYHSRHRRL
Compound,Potency,"max response, negative = inhibition"
CN1C(=O)NC(c2ccccc2)C2=C1CN(c1ccc3ccccc3c1)C2=O (stereo not drawn),"inconclusive: 31.6 µM [activator, partial curve]",
CCOC(=O)N1CCN(Cc2nc3cc(NC(=O)c4ccccc4OC)ccc3n2C(C)C)CC1,"inconclusive: 31.6 µM [activator, single point]",
Cn1c(=O)n(CCCOc2ccc(Br)cc2)c2ccccc21,"inconclusive: 39.8 µM [activator, single point]",
COC(=O)c1c(/N=C/NOCc2ccc(Cl)cc2)sc2c1CCN(c1ncc(C(F)(F)F)cc1Cl)C2,"inconclusive: 0.158 µM [inhibitor, full curve]",
CN(C)c1ccc(/C=N\Nc2nc(-c3ccccc3)cc(=O)[nH]2)cc1,"inconclusive: 20 µM [inhibitor, partial curve, poor fit]",
O=C(Nc1cccc(Br)c1)c1cc(-c2ccc3c(c2)OCCO3)on1,"inconclusive: 39.8 µM [inhibitor, single point]",
CCOC(=O)Cc1ccc(NC(=O)N2CC(C)Oc3ccc(Cl)cc32)cc1 (stereo not drawn),,inactive: 11.2%
CC(C)(C)OC(=O)N[C@@H](Cc1ccccc1)c1nnc(S(=O)(=O)Cc2cccc(F)c2)o1,active: 20 µM,
O=C(CSc1cn(CC(=O)N2CCCC2)c2ccccc12)Nc1ccccc1C(F)(F)F,,inactive: 8.57%
Cc1cccc(NS(=O)(=O)c2ccc3nc(-c4ccccc4)[nH]c3c2)c1C,"inconclusive: 39.8 µM [inhibitor, single point] and inconclusive: 20 µM [inhibitor, single point]",
CCOC(=O)c1scc(-c2ccc(C)cc2)c1S(=O)(=O)Nc1ccc(OC)c(Cl)c1,,inactive: -2.43%
Cc1cccc(OC(=O)C2C(c3ccccc3)C(C(=O)O)C2c2ccccc2)c1 (stereo not drawn),"inconclusive: 39.8 µM [activator, single point]",
Cc1nn(Cc2c(F)c(F)c(F)c(F)c2F)c(C)c1NC(=O)c1c(-c2ccccc2)nn(-c2ccccc2)c1C,"inconclusive: 20 µM [activator, single point]",
OC[C@@H]1[C@@H](c2ccccc2)C(c2ccc(F)cc2)=NN1c1ccccc1,"inconclusive: 28.2 µM [inhibitor, single point]",
Cc1cccc(Cn2cccc2CNS(=O)(=O)c2ccc(C)c(C)c2)c1,,inactive: -5.59%
CCCOc1cccc(C2c3c(oc4ccc(F)cc4c3=O)C(=O)N2Cc2ccc3c(c2)OCO3)c1 (stereo not drawn),,inactive: 10.9%
Cc1ccc(-n2cnc3cc(C(=O)NCc4ccccc4Cl)ccc32)c(C)c1,"inconclusive: 1 µM [inhibitor, full curve, poor fit]",
COC(=O)c1ccc(-c2nc3cc(Cl)c(N)cc3s2)cc1,active: 7.94 µM,
Cc1cc(Br)ccc1NC(=O)CN1C(=O)c2cccnc2Sc2ccccc21,"inconclusive: 31.6 µM [activator, single point]",
O=C(Nc1ccc(CN2CCOCC2)cc1)c1ccc(-c2cccc(Cl)c2)o1,"inconclusive: 39.8 µM [inhibitor, single point]",
CN1/C(=C\C(=O)COc2ccc3c(c2)OCO3)C(C)(C)c2ccccc21,"inconclusive: 10 µM [inhibitor, partial curve]",

Compound,Potency,"max response, negative = inhibition"
CCOc1ccc(C(=O)Nc2cc(-c3ccccc3)no2)cc1,active: 20 µM,
Cc1cccc(-c2nnc(SCC(=O)NC3CCCCC3)o2)c1,,inactive: -0.923%
Cc1cccc(-n2c(CNC(=O)c3ccc(S(=O)(=O)N(C)C)cc3)nnc2SCC(=O)Nc2ccc(F)cc2)c1,"inconclusive: 25.1 µM [activator, partial curve]",
COCCCn1c(SCc2ccc(OC)cc2)nc2cc(OC)c(OC)cc2c1=N,"inconclusive: 39.8 µM [activator, single point]",
N[C@@]1(C(=O)O)CCC[C@@H]1C(=O)O,,inactive: 1.55%
COc1ccc(/C=C\C(=O)c2c(O)ccc3c(C)cc(=O)oc23)cc1OC,"inconclusive: 25.1 µM [activator, single point]",
Cc1cccc(/C=C2/SC(=O)N(Cc3ccccc3Cl)C2=O)n1,"inconclusive: 31.6 µM [inhibitor, single point]",
COc1ccc(CCN2C(=O)c3cccc4c(C(=O)N5CCCCC5)ccc(c34)C2=O)cc1OC,"inconclusive: 39.8 µM [activator, single point]",
COc1ccc(N(C(=O)c2ccc(C)cc2)S(=O)(=O)c2ccc(Cl)cc2)cc1,"inconclusive: 39.8 µM [inhibitor, single point]",
COc1ccc(C2c3c(-c4cc(Cl)c(C)cc4O)n[nH]c3C(=O)N2Cc2cccnc2)cc1OC (stereo not drawn),"inconclusive: 39.8 µM [activator, single point]",
O=C1CN(C(=O)c2ccc(S(=O)(=O)N3CCCC3)cc2)C(c2ccc(F)cc2)c2cc(F)ccc2N1 (stereo not drawn),,inactive: 2.52%
CC(C)OC(=O)c1c2nc3ccccc3nc2n2c1[nH]c(=O)c1ccccc12,"inconclusive: 39.8 µM [activator, single point]",
COc1ccccc1N(Cc1ccccc1)S(=O)(=O)c1cccc(C(=O)Nc2ccc(C(C)=O)cc2)c1,"inconclusive: 31.6 µM [inhibitor, single point]",
N#Cc1c(-c2ccccc2F)cc(C2CC2)nc1SCC(=O)c1cccs1,"inconclusive: 39.8 µM [inhibitor, single point]",
Cc1ccccc1Nc1c(-c2ccccc2O)nc2sccn12,"inconclusive: 31.6 µM [inhibitor, single point]",
CCn1c(COc2cccc(OC)c2)nnc1SCC(=O)Nc1cccc(OC)c1,,inactive: 15.6%
CCn1c(=NC(=O)c2ccc(N3C(=O)CCC3=O)cc2)sc2c(OC)ccc(OC)c21,"inconclusive: 39.8 µM [activator, single point]",
Cc1ccccc1CN1C(=O)c2ccccc2S(=O)c2ccc(C(=O)NCc3ccccc3)cc21 (stereo not drawn),"inconclusive: 25.1 µM [inhibitor, single point]",
COc1ccc(C)cc1S(=O)(=O)N(CC(=O)Nc1cccc([N+](=O)[O-])c1)c1ccc(C)cc1,"inconclusive: 39.8 µM [inhibitor, single point]",
COc1ccc(-c2ccc(-c3cc(=O)oc4cc(C)cc(C)c34)cc2)cc1,"inconclusive: 35.5 µM [inhibitor, partial curve, poor fit]",
COc1ccc(-c2c(C)nn3c(C(F)(F)F)cc(C)nc23)cc1OC,"inconclusive: 39.8 µM [activator, single point]",

Compound,Potency,"max response, negative = inhibition"
Cc1oc2ncn(C)c(=O)c2c1C(=O)N1CCN(c2ccc(Cl)cc2)CC1,,inactive: -0.527%
CCC(C(=O)NC1CCCC1)N(C(=O)Cn1nnc(-c2ccc(C)o2)n1)c1cnc2ccccc2c1 (stereo not drawn),"inconclusive: 39.8 µM [activator, single point]",
CC(C)(O)[C@@H]1Cc2c(ccc3ccc(=O)oc23)O1,"inconclusive: 31.6 µM [inhibitor, single point]",
COc1ccc(-c2nc(CSCC(=O)N3CCN(c4cccc(C)c4)C(C)C3)c(C)o2)cc1OC (stereo not drawn),"inconclusive: 25.1 µM [activator, single point]",
Cc1ccc(C)c(NC(=S)NC(NC(=O)Cc2ccccc2)C(Cl)(Cl)Cl)c1 (stereo not drawn),active: 25.1 µM,
COc1cc2c(cc1NC(=O)COc1ccccc1OC)oc1ccccc12,,inactive: -21%
CCc1ccc(NC(=O)CN(c2ccc(C)cc2)S(=O)(=O)c2c(C)nn(C)c2C)cc1,"inconclusive: 39.8 µM [activator, single point]",
CCN1c2ccccc2-c2nc3ccccc3n2C1c1ccco1 (stereo not drawn),"inconclusive: 12.6 µM [activator, partial curve]",
COc1ccccc1Cn1c(=O)c2ccccc2n2c(Sc3ncnc4sccc34)nnc12,active: 15.8 µM,
Cc1ccc2ccccc2c1Cn1c(-n2ccnc2)nc2c1c(=O)n(C)c(=O)n2C,"inconclusive: 20 µM [activator, single point]",
CCCc1nn2c(=O)cc(COC(=O)c3ccccc3NC(=O)C3CCCCC3)nc2s1,,inactive: -13.8%
COc1cc(/C=C/C(=O)OCC(=O)Nc2cc(C(F)(F)F)ccc2N2CCOCC2)ccc1O,,inactive: -7.03%
CCc1ccc(/C(C)=N/Nc2cc(Cl)nc(C)n2)cc1,"inconclusive: 39.8 µM [activator, single point]",
O=C(Oc1ccc(-c2cnc3ccccc3n2)cc1)c1ccc(Br)o1,"inconclusive: 20 µM [inhibitor, single point]",
COc1ccc(C(=O)NCC(c2cccnc2)N2CCN(c3ccccc3F)CC2)cc1OC (stereo not drawn),,inactive: -5.44%
COc1ccccc1N1CCN(C(c2ccccn2)c2nnnn2C2CCCCC2)CC1 (stereo not drawn),"inconclusive: 39.8 µM [activator, single point]",
Cc1ccc(CNC(=O)c2cc3c(=O)n4cccc(C)c4nc3n(CC3CCCO3)c2=N)cc1 (stereo not drawn),"inconclusive: 20 µM [activator, partial curve]",
COc1ccc(-c2cc(C)no2)cc1S(=O)(=O)N1CCN(c2ccc(C(C)=O)cc2)CC1,,inactive: -7.52%
CC(=O)N1c2ccccc2CC1C(=O)N1CCN(c2cccc(C)c2C)CC1 (stereo not drawn),,inactive: 2.55%
Cc1ccc2onc(CC(=O)N3CCN(c4ccccc4F)CC3)c2c1,"inconclusive: 25.1 µM [activator, single point]",
C=CCn1cc(C(=O)NCCCOCC)c(=O)c2cc(S(=O)(=O)N(CC)CC)ccc21,"inconclusive: 31.6 µM [activator, single point]",
